Measured values taken from patent publication US20230287146A1 (LAMKAP BIO GAMMA, published 2023).

Target: T1, human CD28 (human, UniProt P10747 19-220)
T1 construct: whole, on cells; also called huCD28
Assay: flow cytometry, bivalent mAb on Jurkat cells
Description: Cells were harvested, checked for viability, and counted. 200'000 cells were incubated for 15 minutes at 4° C. with increasing concentrations of the antibodies diluted in FACS buffer (PBS 2% BSA). Cells were washed twice with cold FACS buffer and re-incubated for further 15 minutes at 4° C. with a suitable anti-human IgG secondary antibody. Cells were washed twice with cold FACS buffer and resuspended in 150 μl FACS buffer with a compatible viability marker. Binding of antibodies to living cells was measured by flow cytometry using a Cytoflex Platform (Beckman Coulter). Data was analyzed with FlowJo™ v10 software (BD Life Sciences) and dose-response binding curves were drawn using GraphPad Prism 9 software. AD84 GPC3 arm of the GPC3×CD3 bispecific antibody and P44, P30, P111 GPC3 arms of the GPC3×CD28 bispecific antibodies of this invention were selected from this screening process based on their specificity and binding signal intensity to GPC3 positive cells.
The binding capacity of the anti-CD28 antibody arms of the invention, tested as bivalent mAbs, was assessed using Jurkat cells (Jurkat Clone E6-1, ATCC TIB 152) by flow cytometry. The flow cytometry methodology was the same as the one described above. AI3 and AI10 CD28 binding arms were selected from this screening process based on their specificity and binding signal intensity to CD28 positive cells.

T1 sequence (P10747 19-220): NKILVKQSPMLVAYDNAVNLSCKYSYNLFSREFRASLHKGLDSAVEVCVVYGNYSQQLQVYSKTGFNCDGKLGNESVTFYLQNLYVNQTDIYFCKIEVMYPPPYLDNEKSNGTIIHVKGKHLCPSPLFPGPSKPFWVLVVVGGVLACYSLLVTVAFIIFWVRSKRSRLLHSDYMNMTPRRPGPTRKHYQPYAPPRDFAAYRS

B1: AI3 anti-CD28 bivalent mAb (antibody, V domains shown)
VH: [gap - about 120 residues]
VL: DIVMTQSPDSLAVSLGERATINCKSSQSVLYSSNNKNYLAWYQQKPGQPPKLLIYWASTRESGVPDRFSGSGSGTDFTLTISSLQAEDVAVYYCQQNLRPPETFGQGTKVEIK
binding result: binds
